This is an account of results in the supplement of paper PMC9446081.

SMILES strings stand for the structures. In all, about 39,000 compounds went through this assay and about 220 (0.56%) showed activity. The list shows a part of the results.
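Also: static incubation at 37 °C against the wild-type strain, values averaged over two biological replicates.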

In this experiment the test system is Escherichia coli K-12 BW25113. In words: relative growth (OD600 normalised to plate interquartile mean) (fraction); higher = less growth inhibition, active = 0.2 or less. The conditions noted are these: 50 µM; LB; incubation time: overnight (16-24 h).
For the compound `C[C@@H]1CN([C@H](C)CO)C(=O)c2cc(NC(=O)C3CCCCC3)ccc2O[C@@H](C)CCCCO[C@@H]1CN(C)C(=O)NC1CCCCC1`, the relative growth was inactive: 0.995. The same measure for `C[C@@H]1CN([C@@H](C)CO)C(=O)c2cccc(NC(=O)NC3CCCCC3)c2O[C@H]1CN(C)Cc1ccc(-c2ccccc2)cc1`: inactive: 0.97; for `C[C@H]1CN([C@@H](C)CO)C(=O)Cc2cc(NC(=O)Cn3cnnn3)ccc2O[C@H]1CN(C)Cc1ccc(C(=O)Nc2ccccc2N)cc1`: inactive: 0.978; for `C[C@@H]1CN([C@@H](C)CO)C(=O)c2cc(NC(=O)c3ccncc3)ccc2O[C@H]1CN(C)S(=O)(=O)c1ccc(F)cc1`: inactive: 1.01. Take `C[C@@H]1CN([C@H](C)CO)C(=O)CCCn2cc(nn2)CO[C@@H]1CN(C)C(=O)c1ccc(N2CCN(C)CC2)cc1`: the relative growth was inactive: 0.999. The same measure for `C[C@H]1CCCCO[C@H](CN(C)S(=O)(=O)c2ccc(F)cc2)[C@@H](C)CN([C@@H](C)CO)C(=O)c2cc(NC(=O)CCC(F)(F)F)ccc2O1`: inactive: 1. To `Cc1noc(C)c1S(=O)(=O)N(C)C[C@H]1Oc2c(NC(=O)c3cnccn3)cccc2C(=O)N([C@@H](C)CO)C[C@H]1C` belongs inactive: 1.01. With `Cc1cc(C)c(C)c(C(=O)O)c1C`, the relative growth is inactive: 0.975. To `Cc1noc(C)c1NC(=O)N[C@H]1C=C[C@H](CC(=O)N2CCN(C)CC2)O[C@@H]1CO` belongs inactive: 0.984; to `Cc1ccc(S(=O)(=O)N2C[C@@H](O)COC[C@H]3O[C@@H](CC(=O)NCc4ccc5c(c4)OCO5)CC[C@@H]32)cc1`, inactive: 1.01. Regarding `CNC(=O)C[C@H]1NCCNC1=O`, the relative growth is inactive: 0.978. For the compound `CN1CCN(C(=O)C[C@@H]2CC[C@@H]3[C@H](COC[C@H](O)CN3C(=O)Nc3ccc4c(c3)OCO4)O2)CC1`, the relative growth is inactive: 0.974.

Turning to `COc1ccc(NC(=O)N(C)C[C@H]2OCCCC[C@@H](C)Oc3ccc(NC(=O)Nc4ccc(C(F)(F)F)cc4)cc3C(=O)N([C@H](C)CO)C[C@@H]2C)cc1`, the relative growth was inactive: 1.01. To `C[C@H](CO)N1C[C@H](C)[C@@H](CN(C)C(=O)Nc2cccc3ccccc23)Oc2ccc(NS(=O)(=O)c3ccc(Cl)cc3)cc2CC1=O` belongs inactive: 1.03; to `O=C(C[C@H]1CC[C@H]2[C@@H](COC[C@@H](O)CN2S(=O)(=O)c2ccc(F)cc2)O1)NCc1ccc(Cl)c(Cl)c1`, inactive: 0.999.

With `COc1cc2c(cc1OC)-c1c(oc3cc4c(cc3c1=O)CCO4)CO2`, the relative growth was inactive: 0.963. On to `C[C@@H]1CCCCO[C@@H](CN(C)C(=O)C2CCCCC2)[C@@H](C)CN([C@@H](C)CO)C(=O)c2cc(NS(=O)(=O)c3ccc(F)cc3)ccc2O1`, for which the relative growth was inactive: 1. For `C[C@@H]1CCCCO[C@H](CN(C)C(=O)Nc2ccccc2)[C@H](C)CN([C@@H](C)CO)C(=O)c2cc(NC(=O)C3CCCCC3)ccc2O1`, the relative growth was inactive: 1.04. In the case of `COc1ccccc1-c1cccc(-c2nc(C(=O)NCc3ccncc3)cc3c2[C@@H](CCO)N([S@](=O)C(C)(C)C)C3)c1`, the relative growth was inactive: 1.

Take `C[C@@H]1CN([C@H](C)CO)C(=O)c2cc(NS(C)(=O)=O)ccc2O[C@H]1CN(C)S(=O)(=O)c1cccs1`: the relative growth was inactive: 1.02. Consider `Cc1ccc(S(=O)(=O)N(C)C[C@@H]2Oc3ncc(Br)cc3C(=O)N([C@H](C)CO)C[C@H]2C)cc1`, for which the relative growth was inactive: 0.999. The same measure for `Cc1noc(C)c1NC(=O)Nc1cccc2c1O[C@@H](CN(C)Cc1ccc(Cl)c(Cl)c1)[C@@H](C)CN([C@H](C)CO)C2=O`: inactive: 0.998; for `COCC(=O)N1C[C@@H](C)[C@@H](OC)CN(C)C(=O)c2ccc(NC(=O)Nc3ccccc3)cc2OC[C@H]1C`: inactive: 1. The same measure for `O=C(/C=C/c1ccc(O)c(O)c1)O[C@H]1[C@H](O)[C@@H](O)[C@H](OCCc2ccc(O)c(O)c2)O[C@@H]1CO`: inactive: 0.971; for `O=C(C[C@H]1C[C@@H]2c3cc(NC(=O)C4CCOCC4)ccc3O[C@@H]2[C@H](CO)O1)NCc1cc(F)ccc1F`: inactive: 0.982.

Regarding `Cc1ccc(S(=O)(=O)N(C)C[C@@H]2OCCCC[C@H](C)Oc3ccc(NC(=O)Nc4ccccc4)cc3C(=O)N([C@@H](C)CO)C[C@H]2C)cc1`, the relative growth is inactive: 1.02. Take `C[C@@H]1CN([C@@H](C)CO)C(=O)c2cc(NS(=O)(=O)c3ccc(Cl)cc3)ccc2O[C@@H](C)CCCCO[C@H]1CN(C)C(=O)C1CCCCC1`: the relative growth was inactive: 1.05. To `CC(C)NC(=O)Nc1ccc2c(c1)CC(=O)N([C@@H](C)CO)C[C@@H](C)[C@@H](CN(C)S(=O)(=O)c1ccc(Cl)cc1)O2` belongs inactive: 1.02; to `COc1ccc(CCNC(=O)Nc2nn(Cc3ccc(COc4cccc(OC)c4)cc3)c3ccccc23)cc1`, inactive: 1.01. To `CO/N=C(\C(=O)N[C@@H]1C(=O)N2C(C(=O)O)=C(C)CS[C@H]12)c1csc(N)n1` belongs active: 0.0368; to `C[C@H]1CN([C@@H](C)CO)C(=O)c2cc(Br)cnc2O[C@H]1CN(C)S(=O)(=O)c1ccccc1F`, inactive: 1.04; to `C[C@@H]1CN([C@H](C)CO)C(=O)Cc2cc(NS(=O)(=O)c3cn(C)cn3)ccc2O[C@H]1CN(C)S(=O)(=O)c1cccs1`, inactive: 1.02. As for `COc1ccc(S(=O)(=O)Nc2ccc3c(c2)C(=O)N([C@H](C)CO)C[C@@H](C)[C@H](CN(C)Cc2ccc(C(F)(F)F)cc2)OCCCC[C@@H](C)O3)cc1`, the relative growth is inactive: 0.878. As to `CC(C)NC(=O)Nc1ccc2c(c1)CC(=O)N([C@H](C)CO)C[C@@H](C)[C@H](CN(C)C(=O)Nc1ccc3c(c1)OCO3)O2`, the relative growth is inactive: 0.977. Take `CS(=O)(=O)Nc1ccc2c(c1)[C@@H]1C[C@@H](CC(=O)NCC3CC3)O[C@H](CO)[C@@H]1O2`: the relative growth is inactive: 0.974.

Take `CN1CCN(CC(=O)N2c3ccccc3C(=O)Nc3cccnc32)CC1.Cl.Cl`: the relative growth is inactive: 1.08. Consider `Cc1noc(C)c1NC(=O)Nc1ccc2c(c1)C(=O)N([C@H](C)CO)C[C@@H](C)[C@@H](CN(C)S(=O)(=O)c1ccc(Cl)cc1)OCCCC[C@H](C)O2`, for which the relative growth was inactive: 0.98. On to `Cc1noc(C)c1NC(=O)Nc1ccc2c(c1)C(=O)N([C@@H](C)CO)C[C@@H](C)[C@H](CN(C)S(=O)(=O)c1ccc(F)cc1)OCCCC[C@@H](C)O2`, for which the relative growth is inactive: 1.02. In the case of `Nc1ncn([C@H]2C[C@H](OP(=O)(O)OC[C@H]3O[C@@H](n4cnc5c(=O)nc(N)[nH]c54)C[C@@H]3O)[C@@H](CO)O2)c(=O)n1`, the relative growth is inactive: 0.967. Consider `COc1ccc(NC(=O)N(C)C[C@H]2Oc3ccc(NC(=O)CCN4CCOCC4)cc3C(=O)N([C@@H](C)CO)C[C@@H]2C)cc1`, for which the relative growth was inactive: 0.992.

Consider `COc1ccc(S(=O)(=O)N(C)C[C@H]2OCCCC[C@H](C)Oc3ccc(NC(=O)C4CCCCC4)cc3C(=O)N([C@@H](C)CO)C[C@H]2C)cc1`, for which the relative growth is inactive: 0.844. The same measure for `CC(C)C#Cc1ccc2c(c1)O[C@H](CN(C)S(=O)(=O)c1cn(C)cn1)[C@@H](C)CN([C@@H](C)CO)S2(=O)=O`: inactive: 0.981.

Take `O=c1c(-c2ccc(O)cc2)coc2cc(O[C@@H]3O[C@H](CO)[C@@H](O)[C@H](O)[C@H]3O)ccc12`: the relative growth was inactive: 0.992. In the case of `C[C@@H]1CN([C@H](C)CO)S(=O)(=O)c2ccc(-c3cncnc3)cc2O[C@@H]1CN(C)C(=O)C1CCCCC1`, the relative growth is inactive: 1.03.

On to `C[C@@H]1CN([C@H](C)CO)C(=O)c2cc(NC(=O)Nc3ccc(C(F)(F)F)cc3)ccc2O[C@H]1CN(C)C(=O)Nc1ccc2c(c1)OCO2`, for which the relative growth is inactive: 1. To `C[C@@H]1CN([C@@H](C)CO)C(=O)c2cccc(NS(=O)(=O)c3ccc(F)cc3)c2O[C@@H]1CN(C)S(=O)(=O)c1ccccc1` belongs inactive: 1.01. The same measure for `C[C@H]1CN([C@@H](C)CO)C(=O)c2cc(NC(=O)Cn3cnnn3)ccc2O[C@H]1CN(C)C(=O)NC1CCCCC1`: inactive: 0.995; for `COc1ccc(S(=O)(=O)N(C)C[C@H]2Oc3ccc(NC(=O)CCCN(C)C)cc3C(=O)N([C@@H](C)CO)C[C@H]2C)cc1`: inactive: 0.995; for `CN1C(=O)c2cc(NC(=O)Cc3cccs3)ccc2OC[C@@H]2O[C@H](CC(=O)NCCc3ccncc3)CC[C@H]21`: inactive: 1.02. To `CS(=O)(=O)N1[C@H](C(=O)O)[C@@H](CO)[C@@H]2Cn3c(ccc(-c4ccc(F)cc4)c3=O)[C@@H]21` belongs inactive: 1.03; to `O=C(C=Cc1ccccc1)c1ccc(OC2OC(CO)C(O)C(O)C2O)cc1O` (stereo not drawn), inactive: 0.945. For the compound `C[N+](C)(C)CCCC[C@@H]1NC(=O)[C@H]2C[C@@H](C(=O)NCc3ccc(F)cc3)[C@@H](c3cccc(OCCO)c3)N2C1=O`, the relative growth was inactive: 1. As for `COc1ccc(CN(C)C[C@H]2OCCCC[C@@H](C)Oc3ccc(NS(=O)(=O)c4cccs4)cc3C(=O)N([C@H](C)CO)C[C@H]2C)cc1`, the relative growth is inactive: 0.992.

On to `COc1cccc(C#Cc2cnc3c(c2)C(=O)N([C@@H](C)CO)C[C@H](C)[C@@H](CN(C)C(=O)C2CCC2)O3)c1`, for which the relative growth is inactive: 1.02. To `CC(C)C[C@@H](C(=O)N[C@@H](Cc1ccc(OCc2ccccc2)cc1)C(=O)NC(C)(C)C)N(C)Cc1ccc(C(C)(C)C)cc1` belongs inactive: 0.997; to `C[C@H]1CN([C@@H](C)CO)C(=O)c2cc(NC(=O)C3CC3)ccc2O[C@@H]1CN(C)Cc1ccc(C(=O)O)cc1`, inactive: 1.01; to `Cc1cc(C(=O)Nc2cccc3c2O[C@@H](CN(C)Cc2ccc4c(c2)OCO4)[C@H](C)CN([C@H](C)CO)C3=O)n(C)n1`, inactive: 0.993. In the case of `COc1ccc(NC(=O)N(C)C[C@H]2Oc3ccc(NC(=O)CCCCCC(=O)Nc4ccccc4N)cc3C(=O)N([C@H](C)CO)C[C@@H]2C)cc1`, the relative growth is inactive: 0.984.
